Measurements taken from PubChem BioAssay AID488969 (Vanderbilt High Throughput Screening Facility, 2010).
The full ranking holds about 110,000 compounds; the median of “z-score” is about -0.1, and the highest 2% start at about 2. This is one part of the list. The source made the active and inactive calls.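 How the source made its calls: active means z-score in the third read window above 3 or below -3; inactive means the rest.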 Residues, ends and D or L forms follow the SMILES beside them. *: point of attachment. Boc = CC(C)(C)OC(=O)*; Bn = c1ccc(C*)cc1

molecular target: Metabotropic glutamate receptor 8 (Rattus norvegicus) (UniProt P70579); assay: rat mGluR8 modulators via GIRK flux, primary screen, cell-based, thallium flux, HTS (AID 488969); conditions: HEK293 rat mGluR8, GIRK (G protein-gated inwardly rectifying potassium channel) thallium flux, FluoZin2; at 10 µM; stronger effect = higher value; submaximal glutamate (EC20) added with thallium
Sequence of UniProt P70579 (P70579 whole entry, looked up): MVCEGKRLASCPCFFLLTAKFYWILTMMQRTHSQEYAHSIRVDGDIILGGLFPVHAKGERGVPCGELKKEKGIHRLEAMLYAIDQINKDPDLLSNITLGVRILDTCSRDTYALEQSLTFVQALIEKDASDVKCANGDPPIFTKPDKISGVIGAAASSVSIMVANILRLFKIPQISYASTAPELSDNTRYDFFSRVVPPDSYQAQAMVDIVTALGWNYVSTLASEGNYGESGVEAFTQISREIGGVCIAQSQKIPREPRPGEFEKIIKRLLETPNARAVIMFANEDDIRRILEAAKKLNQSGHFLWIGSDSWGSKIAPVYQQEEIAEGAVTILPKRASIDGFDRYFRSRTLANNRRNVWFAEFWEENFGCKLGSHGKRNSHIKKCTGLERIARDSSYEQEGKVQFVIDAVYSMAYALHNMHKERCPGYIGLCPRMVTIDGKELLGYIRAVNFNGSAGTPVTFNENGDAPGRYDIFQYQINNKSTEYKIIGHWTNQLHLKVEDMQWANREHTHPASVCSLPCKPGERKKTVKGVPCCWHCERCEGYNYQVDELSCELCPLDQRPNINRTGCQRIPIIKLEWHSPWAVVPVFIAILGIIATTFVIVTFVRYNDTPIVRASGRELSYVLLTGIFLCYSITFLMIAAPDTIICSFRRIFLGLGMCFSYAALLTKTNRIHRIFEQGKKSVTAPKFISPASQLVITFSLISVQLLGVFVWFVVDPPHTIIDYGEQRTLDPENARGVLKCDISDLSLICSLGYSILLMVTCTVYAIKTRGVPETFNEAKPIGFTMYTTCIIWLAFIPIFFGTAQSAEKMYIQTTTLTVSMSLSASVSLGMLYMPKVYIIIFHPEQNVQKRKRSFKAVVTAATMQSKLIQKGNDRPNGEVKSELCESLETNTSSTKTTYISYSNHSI

| SMILES | z-score |
| --- | --- |
| Cc1c(C(=O)Nc2ccc(Cl)cn2)oc2ccccc12 | -0.194 |
| Cc1nc2c(-c3ccccc3)c(C)nn2c(C)c1CCC(=O)O | 0.235 |
| CCCCNC1C(CC)C(CCC)C(C#N)(C#N)C1(C#N)C#N (stereo not drawn) | -0.218 |
| COc1cc(NC(=O)C2CC(=O)NC3=C2C(=O)CC(C)(C)C3)c(OC)cc1Cl (stereo not drawn) | -0.189 |
| COc1ccc(OC)c2sc(NC(=O)C(C)C)nc12 | -0.367 |
| CC(C)(C)c1ccc(C(=O)N/N=C/c2cccc(Cl)c2)cc1 | 1.35 |
| COc1ccc(CCN2C(=O)NC(NC(C)=O)(C(F)(F)F)C2=O)cc1OC (stereo not drawn) | -0.0599 |
| COc1ccc(OCCCc2c(C)n[nH]c2C)cc1 | -0.118 |
| O=S(=O)(N1CCOCC1)n1c(Cc2ccccc2)nc2ccccc21 | 0.438 |
| C=CCn1c(CSCc2ccccc2)nnc1SCC(=O)NCc1ccccc1 | -0.096 |
| Cc1ccc(-c2csc(NC(=O)CSc3nc(C)cs3)n2)cc1 | 0.156 |
| O=C(O)C1CCCCC1C(=O)Nc1ccc2c(c1)OCCO2 (stereo not drawn) | 0.102 |
| Cc1ccc(N2C(N)=C(C#N)C(c3cccs3)C3=C2CC(C)(C)CC3=O)cc1 (stereo not drawn) | -0.289 |
| O=C(CSc1nc(-c2ccco2)cc(C(F)(F)F)n1)N1CCCc2ccccc21 | 0.302 |
| CCOc1ccccc1N1CCN(C(=O)/C=C/c2cccc([N+](=O)[O-])c2)CC1 | 0.17 |
| CC(C)CC(c1nnnn1C(C)(C)C)N1CCN(C2CCCC2)CC1 (stereo not drawn) | 0.378 |
| N#C/C(=C\c1ccc(N2CCOCC2)cc1)c1ccccc1 | -0.497 |
| CN(CC(=O)Nc1ccc(F)cc1)c1ccc(S(=O)(=O)N2CCCCC2)cc1[N+](=O)[O-] | -0.121 |
| CC1=NN(Cc2ccccc2)C(=O)/C1=C/c1ccc(N(C)C)cc1 | 0.0819 |
| O=S(=O)(NCCc1cn2ccccc2n1)c1ccc(F)c(C(F)(F)F)c1 | 0.422 |
| COc1ccc(OC)c(S(=O)(=O)Nc2ccc3oc4c(c3c2)C(=O)CCC4)c1 | 0.244 |
| O=C(Oc1coc(CSc2nnc(NC(=O)C3CC3)s2)cc1=O)c1ccccc1 | -0.176 |

| SMILES | z-score |
| --- | --- |
| O=C(/C=C/c1ccc(Cl)cc1)Nn1c(-c2cccs2)nc2ccccc2c1=O | -0.113 |
| Cc1cc(NC(=O)C2C3C(=O)N(CCC(C)C)C(C(=O)NCc4ccccc4)C34C=CC2(C)O4)no1 (stereo not drawn) | -0.142 |
| CC(C)CC(NC(=O)C(Cc1ccc(OCc2ccccc2)cc1)NC(=O)OC(C)(C)C)C(N)=O (stereo not drawn) (Boc-Tyr(Bn)-Leu-NH2; configuration not given here) | -0.105 |
| CCOC(=O)Cc1csc(NC(=O)CSc2nnc(-c3ccc(C)cc3)o2)n1 | 0.697 |
| O=c1oc2ccccc2cc1N1CCOCC1 | -0.0667 |
| CCCSc1nnc(-c2c[nH]c3ccccc23)n1CC | 0.224 |
| CCn1c(Cc2ccccc2)nnc1SCC(=O)Nc1ccc2c(c1)OCCO2 | -0.292 |
| O=[N+]([O-])c1ccc(N2CCN(c3nc(-c4ccc(Cl)cc4)cs3)CC2)cc1 | -0.33 |
| CCC(=O)c1ccc(OCC(O)CN2CCN(S(=O)(=O)N3CCCCC3)CC2)cc1 (stereo not drawn) | 0.921 |
| COc1ccc(C(=O)c2ccc(Cl)cc2)cc1 | -0.154 |
| COc1ccc2c(c1)N1CCN=C1N2C | 1.97 |
| O=S(=O)(NNc1ccc(Cl)nn1)c1ccc(F)cc1 | 0.278 |
| O=C(C1CCN(C2CC(=O)N(c3cccc(Cl)c3)C2=O)CC1)N1CCCCCC1 (stereo not drawn) | -1.25 |
| Cc1cnc(NC(=O)CSc2nnc(-c3ccccc3)n2Cc2ccccc2)s1 | -0.372 |
| CCN(CC)C(=O)Cn1cnc2sc(C(=O)N3CCN(c4ccc(OC)cc4)CC3)c(C)c2c1=O | 0.302 |
| O=C(CN1CCOCC1)NC1CC2CCC1C2 (stereo not drawn) | 0.0479 |
| CCCCOc1ccc(Cc2n[nH]c(=S)n2N)cc1 | 0.16 |
| Cc1ccccc1OCC(=O)OC(C)CN1CCN(C)CC1 (stereo not drawn) | -0.0943 |
| CCOC(=O)C1CCN(C(C)=C2C(=O)c3ccccc3C2=O)CC1 | 0.966 |
| O=C(CCCOc1ccccc1)Nc1ccc(Br)cc1 | -0.277 |
| CCn1c(SCC(=O)Nc2ccc3c(c2)OCO3)nnc1-c1ccccc1O | -0.55 |
| O=C(NNC(=O)c1cccc2ccccc12)c1ccco1 | -0.179 |

| SMILES | z-score |
| --- | --- |
| COc1ccc(CNC(=O)C(=O)NCC2CCCO2)cc1 (stereo not drawn) | -0.283 |
| CCc1nnc(NC(=O)Cc2ccc(OCc3c(C)noc3C)cc2)s1 | -1.17 |
| O=C(CN1CCNCC1)Nc1ccc(Oc2ccccc2)cc1 | 2.35 |
| O=S(=O)(Nc1ccc2c(c1)nc1n2CCN(Cc2ccccc2)C1)c1ccc(F)cc1 | -1.34 |
| Cn1c(=O)cc(OCCCC(=O)NCc2ccccn2)c2ccccc21 | 0.111 |
| CCCCN(Cc1ccco1)C(=O)Cn1ncc2c(=O)oc3ccc(C)cc3c21 | -0.352 |
| O=C(COC(=O)c1ccccc1Cl)Nc1nccs1 | -0.0413 |
| Clc1cncc(Cl)c1NNc1c2ccccc2nc2ccccc12 | 0.0214 |
| COC(=O)c1cn(CC(=O)NCc2cccs2)c2ccccc12 | -0.307 |
| CCOc1ccc(C(=O)Nc2cccc(-c3nc4ccccc4[nH]3)c2C)cc1[N+](=O)[O-] | -0.366 |
| CC(=O)c1c(C)c[nH]c1C | 1.16 |
| Cc1sc2nc(SCc3nc4ccccc4[nH]3)n(Cc3ccco3)c(=O)c2c1C | 0.693 |
| CCOC(=O)Cc1cc(-c2ccc(O)cc2)nc2ccc3ccccc3c12 | 0.0725 |
| N#C/C(=C\c1cccnc1)C(=O)NC1CCCCC1 | -0.27 |
| COc1cc2c(cc1OC)CN(C(C)C(=O)Nc1ccc(NC(C)=O)cc1)CC2 (stereo not drawn) | 0.157 |
| C=C(C)C(=O)NC1=NN(c2ccccc2)C(=O)C1 | -0.302 |
| O=C(N/N=C/c1cccc([N+](=O)[O-])c1)c1cc(-c2ccccc2)nc2ccccc12 | -0.328 |
| COC(=O)[C@H]1CCCN1C(=O)Nc1cccc(Oc2c(F)c(F)c(F)c(F)c2F)c1 | 0.336 |
| c1ccc(C2=NC(c3ccccc3)N=C(c3ccccc3)N2)cc1 | -0.335 |
| O=C(Nc1cccnc1)c1ccc(COc2ccccc2Br)o1 | -0.158 |
| COc1ccc2[nH]c(C)c(CCN(Cc3cccs3)C(=S)Nc3ccccc3)c2c1 | 0.0461 |
| COc1ccc(NC(=O)c2cc(C)on2)cc1OC | 1.98 |

| SMILES | z-score |
| --- | --- |
| CCCCOc1ccc(C(=O)N/C(=C\c2cccc([N+](=O)[O-])c2)C(=O)OCc2ccco2)cc1 | -0.156 |
| Cc1ccc(/C=C/C(=O)NCc2ccco2)o1 | -0.412 |
| Cc1cc(C)n2c(SCC(=O)Nc3cc(C)on3)nnc2n1 | 0.885 |
| CCOC(=O)C1=C(C)Nc2ccccc2N=C1NC(=O)c1cccc(S(=O)(=O)NCc2ccccc2)c1 | 0.0479 |
| COc1cc(C(c2nnnn2C(C)(C)C)N2CCN(c3nc4ccccc4s3)CC2)ccc1O (stereo not drawn) | -0.579 |
| COc1ccc(C)cc1NC(=O)COC(=O)c1ccc(OCc2ccc(Cl)cc2Cl)c(OC)c1 | 0.00468 |
| CCCC(=O)NCCc1cc2cc(C)c(C)cc2[nH]c1=O | 0.486 |
| O=C1C(NS(=O)(=O)c2cccs2)=C(N2CCN(c3cccc(C(F)(F)F)c3)CC2)C(=O)c2ccccc21 | -0.101 |
| CCOC(=O)c1c(NC(=O)CSc2nnc(-c3ccncc3)n2Cc2ccco2)sc(C(C)=O)c1C | active: -3.85 |
| COc1ccc(C(F)(F)F)cc1N/C=C\c1nnnn1-c1ccc(C)cc1 | -0.108 |
| COc1cccc(CNC(=O)c2cccc(Br)c2)c1 | -0.188 |
| Cc1nn(-c2ccccc2)c(C)c1/C=N/NC(=O)c1cc(C2CC2)[nH]n1 | -0.52 |
| COc1ccc(OC(C)C(=O)NCc2cccnc2)cc1 (stereo not drawn) | -0.197 |
| Cc1cc(N2CCN(c3ccccc3)CC2)nc(-n2nc(C)cc2C)n1 | 0.16 |
| O=C(NC1CCCc2ccccc21)C1CCCN(S(=O)(=O)c2cnc[nH]2)C1 (stereo not drawn) | 0.957 |
| O=C(O)C1C(C(=O)Nc2ccc(Cl)cc2)C2C=CC1C21CC1 (stereo not drawn) | 0.236 |
| CC(=O)N1CCC(N(CCN2CCOCC2)C(=S)Nc2c(C)cccc2C)CC1 | -0.117 |
| CCOc1ccc(N2C(=O)c3ccccc3C2=O)cc1 | -1.29 |
| COc1ccccc1N1CCSC1C(N)=O (stereo not drawn) | 0.0543 |
| CCOc1ccc(N(C(C)C(=O)Nc2ccc(OC)cc2)S(C)(=O)=O)cc1 (stereo not drawn) | -0.0891 |
| COc1ccc(NS(=O)(=O)c2ccc(N/N=C/c3ccc(N4CCOCC4)cc3)c([N+](=O)[O-])c2)cc1 | -0.0386 |
| Cc1nnc(SCCn2c(N3CC(C)CC(C)C3)nc3c2c(=O)[nH]c(=O)n3C)s1 (stereo not drawn) | -0.0306 |

| SMILES | z-score |
| --- | --- |
| Cn1c(O)c(N=NC(=O)CNC(=O)c2ccco2)c2ccccc21 | -0.2 |
| Cc1ccc(OCC(=O)Nn2cnnc2)c(Br)c1 | -0.0537 |
| Cc1cc(OCCCC(=O)NC2=NCCS2)ccc1Cl | 0.598 |
| CN1C(=O)c2ccc(NC(=O)c3c(F)c(F)c(F)c(F)c3F)cc2C1=O | -0.121 |
| CC(=O)Nc1ccc(S(=O)(=O)Nc2nnc(C(C)C)s2)cc1 | 0.64 |
| COc1ccc(OC/C(O)=C(\C#N)c2nc3ccccc3[nH]2)cc1 | -0.162 |
| Cc1ccc(Cn2ccc(NC(=O)C3C4CCC(C4)C3C(=O)O)n2)cc1 (stereo not drawn) | 0.0155 |
| N#CC1=C(N)SC(N)=C(C#N)C1c1cccc(Oc2ccccc2)c1 | 0.744 |
| CN1CCN(c2nc(-c3ccccc3)cc(C(F)(F)F)n2)CC1 | 0.0193 |
| CCCC(=O)Nc1ccc(C(=O)n2nnc3ccccc32)cc1 | -0.112 |
| Cc1ccc(C)c(N2CCN(C(=O)CCCn3c(=S)[nH]c4cc5c(cc4c3=O)OCO5)CC2)c1 | 0.0212 |
| CN(c1ccccc1C(=O)Nc1cccc(Cl)c1Cl)S(C)(=O)=O | 0.0249 |
| Nc1cc(C(=O)O)ccc1N1CCCCCC1 | -0.171 |
| CC(C)CCNC(=O)C1CCN(c2nnc(-n3cccc3)s2)CC1 | -0.259 |
| O=C(CS(=O)(=O)Cc1ccccc1)N1CCN(Cc2ccc3c(c2)OCO3)CC1 | 0.245 |
| CCCC(=O)Nc1sc2c(c1C#N)CCCC2 | -0.0477 |
| C=CCOc1ccccc1C1NC(=O)NC(C)=C1C(=O)NCc1ccccc1 (stereo not drawn) | 0.175 |
| CCOC(=O)c1ccc(NC(=O)CCOc2ccc(C)cc2)cc1 | -1.04 |
| CC/C(C)=N/NC(=S)NCc1ccco1 | 0.0671 |
| COc1cc(/C=C/C(=O)c2ccc(C)c([N+](=O)[O-])c2)cc(OC)c1O | -0.611 |
